According to paper PMC4336329 (PLoS ONE, 2015):
About 2,200 (0.71%) of roughly 310,000 compounds showed an effect of 50% or more. Effects have a minus sign here. This is one part of the list.

What follows are compounds tested against human ether-à-go-go-related gene (hERG) potassium channel (human, UniProt Q12809) (assay: primary screen, population patch clamp on CHO cells stably expressing hERG).
Sequence of human ether-à-go-go-related gene (hERG) potassium channel (Q12809 whole entry, looked up): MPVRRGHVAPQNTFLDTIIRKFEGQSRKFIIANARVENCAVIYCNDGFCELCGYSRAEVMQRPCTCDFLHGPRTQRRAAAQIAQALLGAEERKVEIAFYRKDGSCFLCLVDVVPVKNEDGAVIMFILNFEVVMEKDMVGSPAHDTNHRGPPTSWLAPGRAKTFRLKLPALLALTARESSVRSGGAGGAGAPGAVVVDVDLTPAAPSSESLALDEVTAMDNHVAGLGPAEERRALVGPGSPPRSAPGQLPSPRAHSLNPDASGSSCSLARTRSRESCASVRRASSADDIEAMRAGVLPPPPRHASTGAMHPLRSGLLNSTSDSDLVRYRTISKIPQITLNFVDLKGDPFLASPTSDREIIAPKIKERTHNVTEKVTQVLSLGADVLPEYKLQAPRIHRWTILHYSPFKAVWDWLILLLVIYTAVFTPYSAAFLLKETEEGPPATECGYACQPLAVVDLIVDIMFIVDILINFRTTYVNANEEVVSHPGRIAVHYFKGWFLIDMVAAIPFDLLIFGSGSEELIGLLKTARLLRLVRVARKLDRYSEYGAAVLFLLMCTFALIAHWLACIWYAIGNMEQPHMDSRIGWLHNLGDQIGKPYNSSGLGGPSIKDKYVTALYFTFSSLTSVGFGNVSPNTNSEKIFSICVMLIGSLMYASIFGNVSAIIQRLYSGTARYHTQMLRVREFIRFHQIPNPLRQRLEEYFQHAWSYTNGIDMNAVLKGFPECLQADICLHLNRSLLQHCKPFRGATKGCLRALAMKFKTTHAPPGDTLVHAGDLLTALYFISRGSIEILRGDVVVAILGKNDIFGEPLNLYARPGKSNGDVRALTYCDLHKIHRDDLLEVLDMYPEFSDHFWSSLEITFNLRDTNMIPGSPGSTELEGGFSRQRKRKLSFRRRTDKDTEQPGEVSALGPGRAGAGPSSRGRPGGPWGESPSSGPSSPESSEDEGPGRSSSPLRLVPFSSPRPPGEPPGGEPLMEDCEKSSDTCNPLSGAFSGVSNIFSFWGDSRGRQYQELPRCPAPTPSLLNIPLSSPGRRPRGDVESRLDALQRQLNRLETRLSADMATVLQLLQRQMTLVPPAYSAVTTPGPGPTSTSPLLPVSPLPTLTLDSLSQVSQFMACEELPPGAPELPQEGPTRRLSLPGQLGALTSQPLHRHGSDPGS

| SMILES | hERG current change (%, negative = inhibition) at 1uM [%] |
| --- | --- |
| O=C(CCn1c(=O)oc2ccccc21)N1CCN(c2ccc(F)cc2)CC1 | -27.1 |
| COC(=O)c1ccccc1NC(=O)C1CCN(C(=O)c2cc(OC)cc(OC)c2)CC1 | -5.95 |
| COc1ccc(N2CCN(c3cnc4ccccc4n3)CC2)cc1 | 10.4 |
| C[C@H]1O[C@@H](OC2CC[C@]3(C=O)[C@H]4CC[C@]5(C)[C@@H](C6=CC(=O)OC6)CC[C@]5(O)[C@@H]4CC[C@]3(O)C2)CC2OC(C)(C)OC21 (some centres unmarked) | -2.38 |
| CCc1ccc(CNC(=O)CCc2nnc(Cc3cccc(C(F)(F)F)c3)o2)nc1 | -20.3 |
| COc1ccc(NC(=O)N2CCc3ccccc3C2)c(OC)c1 | 2.48 |
| Cc1ccc(S(=O)(=O)N2CCOCC2)cc1NC(=O)COC(=O)c1cnccn1 | 11.9 |
| Cc1cc(C)nc(NC(=O)c2cc([N+](=O)[O-])cc([N+](=O)[O-])c2)n1 | 5.91 |
| COc1ccc(C2c3[nH]c4ccccc4c3C[C@H]3C(=O)N(c4ccccc4C(=O)N4CCC[C@@H]4C(=O)O)C(=O)N23)cc1 (some centres unmarked) | 14.3 |
| Cc1nnsc1NC(=O)OCC(C)C | 19.6 |
| CCCn1nnnc1NCc1ccc(N(CC)CC)cc1 | 13.2 |
| CCOc1ncnc2c1[nH]c1ccccc12 | 13.8 |
| COc1ccc(CCNC(=O)CSc2nc(=O)n3cc(C)ccc3n2)cc1OC | 13.6 |
| CCCCS(=O)(=O)NC1=NCN(CCO)CN1 | 13.1 |
| CCN(CC)CCN(C(=O)C1CCCCC1)c1nc2cc3c(cc2s1)OCO3.Cl | -2.01 |
| COc1ccc(S(=O)(=O)N2CCOC2CNC(=O)C(=O)NCCc2ccc(OC)c(OC)c2)cc1 (centres unmarked) | 7.24 |
| CCN(Cc1cc2cc(C)ccc2[nH]c1=O)C(=O)c1cccc([N+](=O)[O-])c1 | -2.52 |
| O=C(CN1C(=O)S/C(=C\c2cccs2)C1=O)Nc1ccc(C(=O)O)c(O)c1 | 16.4 |
| OC1CCCN(CC(O)COc2ccc(-c3ccccc3)cc2)C1 (centres unmarked) | -0.151 |
| Cc1ccc(C(=O)NCCCNC(=O)COc2ccccc2Cl)cn1 | 12.5 |
| Cc1nc2ccc(S(=O)(=O)NC(C(=O)N3CCn4c3nc3ccccc34)C(C)C)cc2s1 (centres unmarked) | 9.51 |
| O=C(NCCc1ccccn1)C1CCN(S(=O)(=O)c2ccc3ccccc3c2)CC1 | 2.14 |

| SMILES | hERG current change (%, negative = inhibition) at 1uM [%] |
| --- | --- |
| C#CCOCCOCCOCCNc1nc(N2CCN(C(=O)C([C@@H](C)CC)n3cc(C(N)Cc4ccc(O)cc4)nn3)CC2)nc(N2CCN(C(=O)[C@H](CCC(=O)O)n3cc(C(N)Cc4ccc(O)cc4)nn3)CC2)n1.Cl (some centres unmarked) | 19.4 |
| COc1ccc(CNC(=O)C(c2cccc(C)c2)N(C(=O)c2csnn2)C2CC2)cc1 (centres unmarked) | -4.85 |
| CNC(=O)CSc1nc2ccccc2c(=O)n1C1CCCCC1 | 12.6 |
| COC(=O)/C(C#N)=C/c1cc(C)sc1C | 17.8 |
| CC(C)(C)NC(=O)CSc1ccc(S(=O)(=O)N2CCOCC2)cn1 | 2.24 |
| CNc1c(NC(=O)c2ccc3c(c2)OCO3)c(=O)oc2ccccc12 | 16.4 |
| CC1(C)Cc2c(sc(NC(=O)C(=O)NCCCN3CCOCC3)c2C#N)CO1 | 16.7 |
| O=C(CSC1=NS(=O)(=O)c2ccccc2N1)NCc1ccc(F)cc1 | 4.29 |
| O=C(/C=C/c1ccccc1Cl)Nc1cccc(S(=O)(=O)NC2=NCCCCC2)c1 | -11.5 |
| COc1ccccc1-n1c(-c2ccc(F)cc2)coc1=O | 3.92 |
| COc1cc(C2CC(=O)OC3=C2C(=O)CC(C)(C)C3)cc(OC)c1OC (centres unmarked) | 15.4 |
| Cc1ccc(OCCN(C)C(=O)C2CCC(=O)N(CC3CCCCC3)C2)cc1 (centres unmarked) | -7.77 |
| CN(c1ccc(C(=O)NCC2CCCO2)cc1)S(=O)(=O)c1ccccc1 (centres unmarked) | 10.6 |
| Cc1ccc(C(C(=O)NC(C)(C)C)N(Cc2cccs2)C(=O)c2csnn2)cc1 (centres unmarked) | 9.4 |
| CCCn1nnc(NC(=O)/C=C/c2ccccc2)n1 | 12.2 |
| O=C(Cn1ncc2c([nH]c3ccccc32)c1=O)N1CCc2ccccc2C1 | 16.2 |
| Cc1ncc(CN2CCCCC2C(=O)Nc2ccc(Oc3ccccc3)nc2)cn1 (centres unmarked) | 7.53 |
| OCC1(CO)COC(CCc2ccccc2)=N1 | 11 |
| COC(=O)c1ccc(NC(=O)c2cccc(C)c2)cc1 | 10.8 |
| S=C(c1ccc(-c2cccc(Cl)c2)o1)N1CCCCC1 | 18 |
| CC1CC(C)CN(CCCNC(=O)C2CCCN(S(=O)(=O)N3CC(C)CC(C)C3)C2)C1 (centres unmarked) | -17.1 |
| C/C(N)=C(/C#N)C(=O)CSc1nc2ccccc2c(=O)n1-c1ccc(C)c(Cl)c1 | 9.81 |

| SMILES | hERG current change (%, negative = inhibition) at 1uM [%] |
| --- | --- |
| CC(C)NC(=O)Cn1c(SCC(=O)N2c3ccccc3CC2C)nc2ccccc21 (centres unmarked) | 3.76 |
| CC1CCN(CCCCOc2ccccc2Br)CC1 | -15.5 |
| O=C(COc1ccc(/C=N/NC(=O)c2cc3ccccc3o2)cc1Br)Nc1ccccc1 | 14.2 |
| COc1ccc(-c2csc(N(C)C(=O)c3ccco3)n2)cc1 | 11.8 |
| COc1cccc(-n2nnc3c(=O)n(CC(=O)N4CCC(Cc5ccccc5)CC4)cnc32)c1 | 10.5 |
| NC(=O)C1CCN(c2nnnn2-c2ccccc2)CC1 | 9.96 |
| COc1ccc(NC(=O)Nc2nnc(C(C)C)s2)cc1 | -1.58 |
| Cc1nc(N(C)C)ncc1C(=O)O | 9.59 |
| COc1ccc(-c2cc(C(=O)Nc3c(C)n(C)n(-c4ccccc4)c3=O)c3ccccc3n2)cc1OC | 20.5 |
| COc1ccc(C2(c3ccc(OC)cc3)NC(=O)N(CC(=O)Nc3ccc(OC)c(OC)c3)C2=O)cc1 | 16 |
| O=c1c2ccccc2nc(/C=C/c2ccccc2F)n1-c1ccccc1O | 12.6 |
| CCOC(=O)Cc1csc(NC(=O)c2ccc(C)cc2)n1 | 0.7 |
| Cc1c(C(C)CCCO)oc(=O)c2c1Oc1c(C)c(C(C)C[C@@H](C)O)oc(=O)c1C2 (some centres unmarked) | 11.6 |
| CC1(C)CC(=O)C=C(c2ccc(OC(F)(F)F)cc2)C1 | 1.78 |
| COc1ccc(-n2c(Cc3cccn3C)nnc2SCC(=O)N2CCCC2)cc1 | 1.38 |
| CC(C)CNc1nc(S(=O)(=O)c2ccccc2)c(Cl)s1 | 3.46 |
| Cc1ccc(C(=O)NC2CCCCCC2)o1 | 1.86 |
| COc1cccc(CNC(=O)c2ccc(NS(=O)(=O)c3ccc4[nH]c(=O)[nH]c4c3)cc2)c1 | 15.3 |
| CCOc1cc(/C=C2/NC(=O)N(CC(=O)Nc3cccc(C)c3)C2=O)ccc1O | 8 |
| CCCn1nc2cc(C(=O)NCc3ccccc3OC)ccc2c1OCC | 11.9 |
| COC(=O)c1ccc(NC(=O)CN2CCN(c3ccccc3C)CC2)cc1 | 4.67 |
| CC(=O)Nc1ccc(S(=O)(=O)NC2CC2)cc1 | 11.1 |

| SMILES | hERG current change (%, negative = inhibition) at 1uM [%] |
| --- | --- |
| CN1CCCN(C(=O)COc2ccc(F)cc2Cl)CC1 | 4.96 |
| CCOC(=O)c1c(NC(=S)Nc2ccc(F)cc2)sc2c1CCC2 | -21.8 |
| Cc1ccc(O)c(NC(=S)NC(=O)c2ccc(-c3ccc(Cl)cc3)o2)c1 | 9.16 |
| CCN(CC)C(=O)COc1ccc(CC(=O)O)cc1OC | 17.5 |
| O=C(NC1CCCCCC1)C1c2ccccc2C(=O)N1Cc1cccs1 (centres unmarked) | -7.02 |
| Cc1ccc2c(c1)N(C(=O)CCC(=O)N1CCC3(CC1)OCCO3)CCO2 | 6.49 |
| Cc1ccccc1C(C)NC(=O)COC(=O)Cn1cc(C(F)(F)F)ccc1=O (centres unmarked) | 13.5 |
| COc1cccc(CNc2ncnc3ccc(-c4c(C)noc4C)cc23)c1 | 14.9 |
| CCNC(=O)CC1C(=O)N(c2ccc(F)cc2)C(=O)N1CCC(C)C (centres unmarked) | 3.28 |
| Cc1ccc(C)c(OCCC(=O)NNC(=O)c2ccccc2F)c1 | 3.32 |
| O=C(CN1C(=O)NC2(CCCC2)C1=O)Nc1nc2ccc(F)cc2s1 | -8.4 |
| COc1cc(NS(=O)(=O)c2ccc3c(c2)C(C)(C)C(=O)N3C)cc(OC)c1 | 4.96 |
| CCNC(=O)O/N=C1\CCCCC1c1ccc([N+](=O)[O-])cc1[N+](=O)[O-] (centres unmarked) | 6.38 |
| COc1cccc(C(=O)/C=C/Nc2ccc(S(=O)(=O)Nc3ccc(C(C)=O)cc3)cc2)c1 | 12 |
| Cc1ccc(NC(=S)N2CCC(N(C)CC3CCCO3)CC2)c(C)c1 (centres unmarked) | -7.06 |
| Cc1sc(NC(=O)c2ccccc2F)c(CN2CCCCC2)c1C | 9.65 |
| O=C(NCCN1CCOCC1)c1ccc(F)cc1 | 3.36 |
| COc1ccc(NC(=S)NNC(=O)CNc2ccc(Cl)cc2)cc1 | -1.3 |
| CC(C)N1CCc2c(sc(NC(=O)Cc3ccccc3)c2C(N)=O)C1.Cl | 6.18 |
| CSc1ccccc1OCc1cc(C(=O)N2CCC[C@H]2C(N)=O)no1 | 12.1 |
